{"source": "paper PMC5333991", "proteins": {"B1": {"name": "CYP3A4 (Homo sapiens) (protein)", "chain": "ALIPDLAMETWLLLAVSLVLLYLYGTHSHGLFKKLGIPGPTPLPFLGNILSYHKGFCMFDMECHKKYGKVWGFYDGQQPVLAITDPDMIKTVLVKECYSVFTNRRPFGPVGFMKSAISIAEDEEWKRLRSLLSPTFTSGKLKEMVPIIAQYGDVLVRNLRREAETGKPVTLKDVFGAYSMDVITSTSFGVNIDSLNNPQDPFVENTKKLLRFDFLDPFFLSITVFPFLIPILEVLNICVFPREVTNFLRKSVKRMKESRLEDTQKHRVDFLQLMIDSQNSKETESHKALSDLELVAQSIIFIFAGYETTSSVLSFIMYELATHPDVQQKLQEEIDAVLPNKAPPTYDTVLQMEYLDMVVNETLRLFPIAMRLERVCKKDVEINGMFIPKGVVVMIPSYALHRDPKYWTEPEKFLPERFSKKNKDNIDPYIYTPFGSGPRNCIGMRFALMNMKLALIRVLQNFSFKPCKETQIPLKLSLGGLLQPEKPVVLKVESRDGTVSGA"}}, "substrate": "O=C1OC2(c3ccc(OCOCc4ccccc4)cc3Oc3cc(OCOCc4ccccc4)ccc32)c2ccccc21", "assay": "purified protein", "assay_type": "biochemical, Homo sapiens", "details": "NADP+ with regeneration system", "data": [{"protein": "B1", "values": [{"measurement": "Km", "result": "8.4 ± 1.7", "unit": "µM"}, {"measurement": "kcat", "result": "0.167 ± 0.0117", "unit": "s⁻¹"}, {"measurement": "kcat/Km", "result": "19800 ± 2170", "unit": "M⁻¹ s⁻¹"}]}]}
